The source gives no read counts; variants with many changes may rest on few reads.
B1: LINE1-mini (parent)
chain: GGCAGAGCUCAACACAGCGUGGCAAAGUGGCUGUGGCUAGACUGCC

Variants of: B1
Assay: self-cleavage, relative activity (ratio to wild type); higher = more cleavage; in vitro, sequencing; the parent is a self-cleaving ribozyme

Variant	self-cleavage
A6U A11U A41G G44C	0.02
A6U G19C C45U	1.88
A6U A24U U28G	1.27
G7A C8U G21A G35A G36A	0.7
A6G G27U G40C	0.16
A6G U9C A25G G30C A41U	0.02
A6G G22C C46A	0.08
A6U G7U G19U G21U	0.04
G7A C8U C15U U20G C23G C42A	0.02
A6U G21U U43C	0.05
A6G G19C G21U C23U G30A U38C	0.02
A6U A25U G27A	0.14
G7A C8G A12G C37A	0
G7A A12G A24C A25U G30C A41C U43A	0.25
A6U G21A G36C C46U	0.08
A6U C23A A25U C45G	0.4
G7A A14U A16G A41G	0.13
A6U G21A G27A	1.64
A6U C13G C18G G22C G29U	0.03
A6U C8U U28G	0.08
A6U G22A C45G	0.06

Variant	self-cleavage
A6G U20C C37G	0.02
A6U A14G C23A G44U	0.25
A6G C18U C23G	0.2
A6U A12U A24G	0.15
A6U G7C G21C G40A	0.16
A6U U9C C18G G36C	0.05
G7A A11U G27U C37A	0.04
A6U G7U U9G A16U G21A	0.05
G7A A11C C15A	0.01
A6U C8U C23G G30U A41G C45A	0.73
A6G U9A C10G U20C A24U C31A G35C U38G	0
A6U C15U C31A	0.17
A6U A16C U43G G44A	0.02
A6U G7A U20A C45U	0.03
A6U G7U C31U	0.03
G7A C8A U32G A41U	0.15
A6U C8U G29C G35U	0.03
A6U A11G C13A C15A G36C C37U	0.05
A6U C13U G36C	0.04
A6G G19A G21A G33C C42U	0.02
G7A C8A C15A G22U G40U	0.57

Variant	self-cleavage
A6G G35U G40U	0.09
A6U C13A C37A	0.04
A6G U9G G33A	0.07
A6U G7A C8A C18G G29A A41C	1.09
A6U A12U G21C U34A	0.05
A6G C23G G29C	0.03
A6U C8U A12U C23A C37A U43G	0
G7A C10A C23U	0.03
A6U A16G G22U	0.31
A6U U43G G44A	0.01
A6U C18U G33A C42U C46A	0.11
A6U C18U G29U	0.48
A6U U20A A39C	0.28
A6G G7A C13U C37U	0.19
A6U G21U C23U G40U	1.26
A6U C10U G40C	0.03
A6G U9A C15U C45U	0.14
A6U G30U C31U	0.08
A6U G22U C31U U34C G40A	0.15
A6U G29U G40U	0.28
A6U C31A A41U	0.05

Variant	self-cleavage
A6U G19U C46U	1.38
A6U G7A C10G G22U U38A	0
A6G C31U C37G G40C U43A C46G	0.03
A6U G22U G40U	0.5
A6U G22U G40A	0.18
A6U A12G A16C U20C G36C C42A	0.04
A6U C18G G36C G44U	0.09
G7A A11G A41C	0.01
A6U G7U C31A U32C U34A	0.11
A6U U9G A11U	0.04
A6U U28C G29C U34C	0.11
A6G C37G U38C	0.01
G7A A11U C37U	0.04
G7A A11G U20C	0.04
A6G U9G C18U C45A	0.01
G7A A26U G27A G29C C45A	0.02
A6U C8G G19C U38C	0.01
A6G G30U C31G G44U	0.03
A6G G17C G40U	0.05
A6G G7U C15A G35U	0.03

Source: the RNAGym collection of RNA variant scans (doi:10.7554/elife.90254)
